Test results: PMC10315710, “Diacylglycerol kinase ζ interacts with sphingomyelin synthase 1 and sphingomyelin synthase‐related protein via different regions” (FEBS Open Bio, 2023)
Results are given in words; binding and its absence hold for the method and conditions named. Binding seen in cells or lysates may run through a third protein. Some entries that bind do so weakly or less than the wild type. Tags and fused reporters may be left off the sequences shown.

Amino acid sequences for entries named in this document (tags omitted). A change or cut given only in a name is not applied to a line headed by its entry.
UniProt Q13574: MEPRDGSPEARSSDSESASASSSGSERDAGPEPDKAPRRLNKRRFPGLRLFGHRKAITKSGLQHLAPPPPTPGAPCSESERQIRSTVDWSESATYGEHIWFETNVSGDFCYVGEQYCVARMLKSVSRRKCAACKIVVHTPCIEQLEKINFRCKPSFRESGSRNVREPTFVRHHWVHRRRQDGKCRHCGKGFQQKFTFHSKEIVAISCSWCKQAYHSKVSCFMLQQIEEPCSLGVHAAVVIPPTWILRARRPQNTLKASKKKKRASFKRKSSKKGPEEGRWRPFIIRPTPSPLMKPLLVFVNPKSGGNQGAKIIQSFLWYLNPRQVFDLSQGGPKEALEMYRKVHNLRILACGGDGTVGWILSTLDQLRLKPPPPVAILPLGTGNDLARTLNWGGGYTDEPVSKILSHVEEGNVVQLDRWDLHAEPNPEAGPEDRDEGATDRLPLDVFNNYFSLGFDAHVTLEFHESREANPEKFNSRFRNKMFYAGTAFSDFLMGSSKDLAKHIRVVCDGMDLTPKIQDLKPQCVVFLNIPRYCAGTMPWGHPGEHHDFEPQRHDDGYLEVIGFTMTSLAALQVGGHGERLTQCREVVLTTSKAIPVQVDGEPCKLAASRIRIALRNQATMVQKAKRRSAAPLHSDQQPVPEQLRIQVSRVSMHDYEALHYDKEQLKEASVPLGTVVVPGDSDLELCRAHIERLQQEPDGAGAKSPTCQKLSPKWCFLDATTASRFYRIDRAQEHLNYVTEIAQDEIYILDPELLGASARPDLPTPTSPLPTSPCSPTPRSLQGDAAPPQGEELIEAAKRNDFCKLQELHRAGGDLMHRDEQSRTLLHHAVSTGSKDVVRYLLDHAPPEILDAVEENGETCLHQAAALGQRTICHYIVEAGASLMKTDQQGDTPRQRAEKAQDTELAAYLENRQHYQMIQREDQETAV

T1: AcGFP‐SMS1‐CT (human) (UniProt Q86VZ5)
T1 sequence: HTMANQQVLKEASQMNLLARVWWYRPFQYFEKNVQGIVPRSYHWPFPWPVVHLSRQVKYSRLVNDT

T2: AcGFP‐SMSr‐NT (human) (UniProt Q96LT4)
T2 sequence: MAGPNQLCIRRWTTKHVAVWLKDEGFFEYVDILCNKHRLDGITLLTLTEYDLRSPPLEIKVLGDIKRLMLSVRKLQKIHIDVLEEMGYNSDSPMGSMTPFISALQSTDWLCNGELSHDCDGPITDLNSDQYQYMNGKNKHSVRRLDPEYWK

T3: SMS1‐V5 (C-terminal V5-tagged human sphingomyelin synthase 1) (human) (UniProt Q86VZ5)
T3 sequence: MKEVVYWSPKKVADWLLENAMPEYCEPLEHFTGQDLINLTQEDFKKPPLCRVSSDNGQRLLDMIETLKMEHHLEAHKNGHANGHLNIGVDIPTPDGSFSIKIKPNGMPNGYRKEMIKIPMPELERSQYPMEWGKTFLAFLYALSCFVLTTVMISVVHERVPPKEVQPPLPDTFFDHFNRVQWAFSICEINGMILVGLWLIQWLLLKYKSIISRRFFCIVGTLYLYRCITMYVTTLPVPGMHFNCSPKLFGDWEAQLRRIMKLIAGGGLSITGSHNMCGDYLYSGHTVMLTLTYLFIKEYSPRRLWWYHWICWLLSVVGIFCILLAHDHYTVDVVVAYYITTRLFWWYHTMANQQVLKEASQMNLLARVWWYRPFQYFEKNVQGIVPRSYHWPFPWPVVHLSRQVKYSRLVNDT

T4: SMS2‐V5 (C-terminal V5-tagged human sphingomyelin synthase 2) (human) (UniProt Q8NHU3)
T4 sequence: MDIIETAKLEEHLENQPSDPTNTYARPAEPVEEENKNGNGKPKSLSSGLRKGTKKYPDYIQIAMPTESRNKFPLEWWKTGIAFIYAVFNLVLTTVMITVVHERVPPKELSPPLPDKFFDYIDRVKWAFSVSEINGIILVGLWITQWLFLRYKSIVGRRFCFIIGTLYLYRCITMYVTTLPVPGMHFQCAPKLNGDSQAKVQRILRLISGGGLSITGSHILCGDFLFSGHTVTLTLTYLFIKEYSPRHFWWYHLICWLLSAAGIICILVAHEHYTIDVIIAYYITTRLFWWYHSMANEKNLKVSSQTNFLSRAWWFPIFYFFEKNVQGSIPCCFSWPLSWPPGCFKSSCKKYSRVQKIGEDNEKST

T5: SMSr‐V5 (C-terminal V5-tagged human sphingomyelin synthase-related protein) (human) (UniProt Q96LT4)
T5 sequence: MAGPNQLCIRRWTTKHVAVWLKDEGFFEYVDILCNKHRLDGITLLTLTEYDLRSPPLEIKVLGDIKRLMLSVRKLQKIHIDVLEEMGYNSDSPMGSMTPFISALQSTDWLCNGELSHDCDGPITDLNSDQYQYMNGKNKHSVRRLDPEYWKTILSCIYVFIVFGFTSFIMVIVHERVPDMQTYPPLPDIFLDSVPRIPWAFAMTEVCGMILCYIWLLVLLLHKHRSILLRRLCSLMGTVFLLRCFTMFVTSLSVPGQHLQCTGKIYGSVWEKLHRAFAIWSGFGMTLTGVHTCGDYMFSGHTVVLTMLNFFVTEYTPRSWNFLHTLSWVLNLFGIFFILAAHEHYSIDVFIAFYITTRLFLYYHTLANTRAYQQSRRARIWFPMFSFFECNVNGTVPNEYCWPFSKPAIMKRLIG

T6: AcGFP‐SMS1‐NT (human) (UniProt Q86VZ5)
T6 sequence: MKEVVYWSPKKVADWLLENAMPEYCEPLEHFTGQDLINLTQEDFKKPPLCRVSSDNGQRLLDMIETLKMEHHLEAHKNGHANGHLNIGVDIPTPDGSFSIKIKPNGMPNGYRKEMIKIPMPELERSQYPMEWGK

B1: 3×FLAG‐DGKκ (enzyme, UniProt Q5KSL6 1-1271)
chain: MDRGAAAAQGTAPPQDGEQPAESPEPPPPWPPPPPPPAPPPAPPLLSEASPEPIPEPCPELAPGPCPEATSESATELYTEPTPEPATEPASEPAPEPATEPAPEPATEPAPEPAPEPATESAPEPTPEPALESVPEPAPELTPEVAPELAPEPTPEPVTELAPEFCPEAAPEFRPSPAPCLLQCPVDTRERGLKTSPSPSPSPSPRTPMSWSRIKKILKEGPMLKNCNSFKRWKLRYFLVQGQKLYFAHHPAFAHFETIDLSQATVAESSCRNLCHSFCVITPQRKITLAAPNRKDMEEWINIIKTIQQGEIYKIPAAENNPFLVGMHCWYSSYSHRTQHCNVCRESIPALSRDAIICEVCKVKSHRLCALRASKDCKWNTLSITDDLLLPADEVNMPHQWVEGNMPVSSQCAVCHESCGSYQRLQDFRCLWCNSTVHDDCRRRFSKECCFRSHRSSVIPPTALSDPKGDGQLVVSSDFWNLDWSSACSCPLLIFINSKSGDHQGIVFLRKFKQYLNPSQVFDLLKGGPEAGLSMFKNFARFRILVCGGDGSVSWVLSLIDAFGLHEKCQLAVIPLGTGNDLARVLGWGAFWNKSKSPLDILNRVEQASVRILDRWSVMIRETPRQTPLLKGQVEMDVPRFEAAAIQHLESAATELNKILKAKYPTEMIIATRFLCSAVEDFVVDIVKAWGQIKQNNTAIVSVILKSDLMYDRLSVLIDVLAEEAAATSAEKSATEYADSSKADRKPFIPQIDHIAKCKLELATKAQSLQKSLKLIIFQVEQALDEESRQTISVKNFSSTFFLEDDPEDINQTSPRRRSRRGTLSSISSLKSEDLDNLNLDHLHFTPESIRFKEKCVMNNYFGIGLDAKISLDFNTRRDEHPGQYNSRLKNKMWYGLLGTKELLQRSYRKLEERVHLECDGETISLPNLQGIVVLNITSYAGGINFWGSNTATTEYEAPAIDDGKLEVVAIFGSVQMAMSRIINLHHHRIAQCHEVMITIDGEEGIPVQVDGEAWIQRPGLIKIRYKNAAQMLTRDRDFENSMKMWEYKHTEIQAAPQPQLDFQDSQESLSDEEYAQMQHLARLAENLISKLNDLSKIHQHVSVLMGSVNASANILNDIFYGQDSGNEMGAASCIPIETLSRNDAVDVTFSLKGLYDDTTAFLDEKLLRSAEDETALQSALDAMNKEFKKLSEIDWMNPIFVPEEKSSDTDSRSLRLKIKFPKLGKKKVEEERKPKSGQSVQSFIGNLWHRRHREDEAEGDDPLTPSRSQL

How the values were obtained:
AcGFP‐SMS1‐CT (human) = biological target: T1, AcGFP‐SMS1‐CT (human); experiment: co-IP; HEK293 cell lysates expressing AcGFP-tagged SMS fragments (or AcGFP alone) and 3×FLAG-tagged DGKζ or its deletion mutants; immunoprecipitation with anti-GFP antibody and Protein A/G PLUS-agarose; western blot with anti-GFP and anti-FLAG
AcGFP‐SMSr‐NT (human) = biological target: T2, AcGFP‐SMSr‐NT (human); experiment: as above
[1] = biological target: T3, SMS1‐V5 (C-terminal V5-tagged human sphingomyelin synthase 1) (human); experiment: co-IP; HEK293 cell lysates expressing V5-tagged SMS1, SMS2 or SMSr and 3×FLAG-tagged DGK isozymes; immunoprecipitation with anti-V5 antibody and Protein A/G PLUS-agarose; western blot with anti-FLAG and anti-V5
[2] = biological target: T4, SMS2‐V5 (C-terminal V5-tagged human sphingomyelin synthase 2) (human); experiment: as above
[3] = biological target: T5, SMSr‐V5 (C-terminal V5-tagged human sphingomyelin synthase-related protein) (human); experiment: as above
AcGFP‐SMS1‐NT (human) = biological target: T6, AcGFP‐SMS1‐NT (human); experiment: co-IP; HEK293 cell lysates expressing AcGFP-tagged SMS fragments (or AcGFP alone) and 3×FLAG-tagged DGKζ or its deletion mutants; immunoprecipitation with anti-GFP antibody and Protein A/G PLUS-agarose; western blot with anti-GFP and anti-FLAG

Molecule	binding (AcGFP‐SMS1‐CT (human))	binding (AcGFP‐SMSr‐NT (human))	binding [1]	binding [2]	binding [3]	binding (AcGFP‐SMS1‐NT (human))
3×FLAG‐DGKζ‐CD‐b (from UniProt Q13574 433-640) (domain or fragment)	binds	binds	–	–	–	–
3×FLAG‐tagged DGKζ‐FL (from UniProt Q13574 1-928) (enzyme)	binds	binds	binds	no binding	binds	no binding
3×FLAG‐DGKζ‐CD (from UniProt Q13574 284-640) (domain or fragment)	binds	–	–	–	–	–
B1	–	–	no binding	no binding	no binding	–
